Source: the supplement of paper PMC9446081
Hit rate of the full screen: of about 39,000 compounds, about 220 (0.56%) showed activity. This is one part of the list.

Each molecule was assayed on Escherichia coli K-12 BW25113 (assay: relative growth (OD600 normalised to plate interquartile mean) (fraction); higher = less growth inhibition, active = 0.2 or less). Details: 50 µM; LB; incubation time: overnight (16-24 h).
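Also: static incubation at 37 °C against the wild-type strain, values averaged over two biological replicates.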

Compound	relative growth
C[C@H](CO)N1C[C@H](C)[C@@H](CN(C)S(=O)(=O)c2ccccc2F)Oc2ncc(C#Cc3cccnc3)cc2C1=O	inactive: 0.982
C[C@H](CO)N1C[C@H](C)[C@@H](CN(C)S(=O)(=O)c2ccccc2)Oc2ncc(C#Cc3ccccc3F)cc2C1=O	inactive: 1.02
CN(C)CC(=O)N[C@H]1CC[C@@H](CCNC(=O)C2CCC2)O[C@H]1CO	inactive: 0.994
C[C@H](CO)N1C[C@H](C)[C@@H](CN(C)S(=O)(=O)c2ccc(F)cc2)Oc2ccc(NS(=O)(=O)c3cn(C)cn3)cc2CC1=O	inactive: 1
C=CCC[C@H](Cc1ccc(F)cc1)C(=O)OC[C@@H](NC(=O)[C@H](CC=C)CC(=O)N(CCO)Cc1ccccc1)c1ccccc1	inactive: 1.06
COc1ccc(S(=O)(=O)Nc2ccc3c(c2)CC(=O)N([C@@H](C)CO)C[C@H](C)[C@@H](CN(C)Cc2ccc(Cl)c(Cl)c2)O3)cc1	inactive: 1.01
C[C@@H]1CCCCO[C@@H](CN(C)C(=O)Nc2cccc3ccccc23)[C@H](C)CN([C@H](C)CO)C(=O)c2cc(NC(=O)c3ccncc3)ccc2O1	inactive: 0.993
C[C@H](CO)N1C[C@H](C)[C@@H](CN(C)Cc2ccc(-c3ccccc3)cc2)Oc2ccc(NC(=O)Cn3cnnn3)cc2CC1=O	inactive: 0.988
C[C@@H]1CN([C@@H](C)CO)C(=O)c2cc(NS(=O)(=O)c3cn(C)cn3)ccc2O[C@@H](C)CCCCO[C@@H]1CN(C)C(=O)Nc1cccc2ccccc12	inactive: 0.963
Cc1noc(C)c1NC(=O)N(C)C[C@@H]1Oc2c(NC(=O)C3CCOCC3)cccc2C(=O)N([C@@H](C)CO)C[C@H]1C	inactive: 0.98
C[C@@H]1CN([C@@H](C)CO)C(=O)c2cc(NC(=O)Nc3cccc4ccccc34)ccc2O[C@H]1CN(C)C(=O)Nc1ccc2c(c1)OCO2	inactive: 0.994
C[C@@H]1CN([C@@H](C)CO)C(=O)Cc2cc(NC(=O)Cc3ccccc3)ccc2O[C@H]1CN(C)S(=O)(=O)c1cn(C)cn1	inactive: 0.945
Cc1cc(C(=O)Nc2cccc3c2O[C@@H](CN(C)Cc2ccncc2)[C@H](C)CN([C@H](C)CO)C3=O)n(C)n1	inactive: 0.995
C[C@H](CO)N1C[C@H](C)[C@H](CN(C)S(C)(=O)=O)OCCCC[C@H](C)Oc2ccc(NC(=O)CCCN(C)C)cc2C1=O	inactive: 0.99
C[C@@H]1CN([C@@H](C)CO)C(=O)c2cc(NC(=O)CCCN(C)C)ccc2O[C@@H]1CN(C)C(=O)Nc1ccc2c(c1)OCO2	inactive: 0.964
C[C@@H]1CCCCO[C@H](CN(C)Cc2ccccc2)[C@@H](C)CN([C@H](C)CO)C(=O)c2cc(NS(=O)(=O)c3cccs3)ccc2O1	inactive: 0.987
CN1C(=O)c2cc(NC(=O)c3ccc(F)cc3)ccc2OC[C@@H]2O[C@H](CC(=O)N3CCOCC3)CC[C@H]21	inactive: 1.03
C[C@H](CO)N1C[C@H](C)[C@@H](CN(C)Cc2ccc(C(=O)O)cc2)OCCCC[C@H](C)Oc2ccc(NC(=O)C3CCCCC3)cc2C1=O	inactive: 1.01
COC[C@H]1CN(CC2CC2)Cc2nnn(C)c21	inactive: 1
CNCc1cccc2ccccc12	inactive: 0.955
CCCCC/C=C/C=C1/C(=O)C=C[C@@H]1C/C=C\CCCC(=O)O	inactive: 1.05

Compound	relative growth
CC(C)NC(=O)Nc1ccc2c(c1)C(=O)N([C@H](C)CO)C[C@H](C)[C@H](CN(C)C(=O)NC1CCCCC1)O2	inactive: 0.995
O=C(N/N=C/c1ccc(B(O)O)cc1)c1ccccc1O	inactive: 0.972
CCOC(=O)Cn1cnc2ccccc2c1=O	inactive: 0.994
Cc1ccc(S(=O)(=O)Nc2ccc3c(c2)CC(=O)N([C@H](C)CO)C[C@H](C)[C@@H](CN(C)CC2CC2)O3)cc1	inactive: 0.963
C[C@@H]1CN([C@@H](C)CO)C(=O)c2cccc(NC(=O)C3CCCCC3)c2O[C@@H]1CN(C)Cc1ccc(Cl)c(Cl)c1	inactive: 0.988
C[C@@H]1CN([C@H](C)CO)C(=O)Cc2cc(NS(C)(=O)=O)ccc2O[C@H]1CN(C)C(=O)Nc1ccccc1	inactive: 1
CCOC(=O)C(C#N)C1=NCCC1 (stereo not drawn)	inactive: 1.02
COc1cccc(NC(=O)N(C)C[C@@H]2Oc3ncc(C#Cc4cccnc4)cc3C(=O)N([C@H](C)CO)C[C@@H]2C)c1	inactive: 0.995
Cc1ccc(S(=O)(=O)N(C)C[C@@H]2Oc3ccc(NC(=O)c4ccncc4)cc3C(=O)N([C@H](C)CO)C[C@H]2C)cc1	inactive: 0.992
Cc1cccc(NC(=O)C[C@H]2NCCNC2=O)c1	inactive: 0.904
CC(C)NC(=O)Nc1ccc2c(c1)C(=O)N([C@@H](C)CO)C[C@H](C)[C@H](CN(C)S(=O)(=O)c1cn(C)cn1)OCCCC[C@H](C)O2	inactive: 0.986
Cc1ccc(S(=O)(=O)N(C)C[C@@H]2Oc3ccc(NS(=O)(=O)c4c(C)noc4C)cc3C(=O)N([C@@H](C)CO)C[C@H]2C)cc1	inactive: 1.02
Cl.O=C(COc1ccc(Cl)cc1)N1CCN(Cc2ccc3c(c2)OCO3)CC1	inactive: 1.02
C[C@H]1CN([C@@H](C)CO)C(=O)c2cc(NC(=O)Nc3ccc4c(c3)OCO4)ccc2O[C@@H]1CN(C)C(=O)Nc1cccc2ccccc12	inactive: 0.93
C[C@@H]1CN([C@@H](C)CO)C(=O)c2cc(NC(=O)c3ccccc3)ccc2O[C@@H](C)CCCCO[C@H]1CN(C)C(=O)NC1CCCCC1	inactive: 1.02
CN(C)CC#Cc1ccc([C@@H]2[C@H](CO)N3CCCCN(C(=O)CN(C)C)C[C@@H]23)cc1	inactive: 0.987
COc1ccc(NC(=O)N(C)C[C@H]2Oc3c(NC(=O)c4ccc(-c5nccs5)cc4)cccc3C(=O)N([C@H](C)CO)C[C@@H]2C)cc1	inactive: 0.998
COc1ccc(S(=O)(=O)Nc2ccc3c(c2)C(=O)N([C@@H](C)CO)C[C@H](C)[C@H](CN(C)C(=O)Nc2ccccc2)OCCCC[C@H](C)O3)cc1	inactive: 0.993
Cc1noc(C)c1NC(=O)N(C)C[C@H]1Oc2ncc(C#CCC(C)C)cc2C(=O)N([C@H](C)CO)C[C@H]1C	inactive: 0.977
C[C@@H]1CN([C@H](C)CO)C(=O)c2cccc(NC(=O)Nc3ccc(C(F)(F)F)cc3)c2O[C@H]1CN(C)Cc1ccc(C(F)(F)F)cc1	inactive: 0.849
C[C@H]1CN([C@@H](C)CO)C(=O)Cc2cc(NC(=O)Nc3cccc4ccccc34)ccc2O[C@@H]1CN(C)CC1CCCCC1	inactive: 0.979

Compound	relative growth
C[C@@H]1CN([C@@H](C)CO)C(=O)CCCn2cc(nn2)CO[C@@H]1CN(C)C(=O)Nc1cccc2ccccc12	inactive: 1
Cc1scc2c1N(C(=O)CN1CCN(C)CC1)c1ccccc1NC2=O.Cl	active: 0.044
COc1cccc(NC(=O)N(C)C[C@H]2OCc3ccccc3-c3c(n(C)c4ccccc34)C(=O)N([C@@H](C)CO)C[C@H]2C)c1	inactive: 0.995
COc1ccc(NC(=O)N(C)C[C@@H]2OCCCC[C@@H](C)Oc3ccc(NC(=O)c4ccccc4)cc3C(=O)N([C@@H](C)CO)C[C@H]2C)cc1	inactive: 1.01
C[C@H]1CN([C@@H](C)CO)C(=O)c2cccc(NC(=O)Nc3ccccc3)c2O[C@@H]1CN(C)Cc1ccc(-c2ccccc2)cc1	inactive: 0.971
Cc1noc(C)c1S(=O)(=O)Nc1cccc2c1O[C@@H](CN(C)S(=O)(=O)c1cn(C)cn1)[C@@H](C)CN([C@@H](C)CO)C2=O	inactive: 1
COc1ccc(CN(C)C[C@@H]2Oc3c(NS(C)(=O)=O)cccc3C(=O)N([C@@H](C)CO)C[C@H]2C)cc1	inactive: 1
O=C(C[C@H]1CC[C@@H]2[C@H](COC[C@H](O)CN2S(=O)(=O)c2ccccc2Cl)O1)NCc1ccccc1Cl	inactive: 0.989
COc1cc(C(=O)OCCCN2CCN(CCCOC(=O)c3cc(OC)c(OC)c(OC)c3)CC2)cc(OC)c1OC	inactive: 1.01
C[C@H]1CN([C@@H](C)CO)C(=O)c2cc(NS(=O)(=O)c3ccc(Cl)cc3)ccc2O[C@@H]1CN(C)Cc1ccc(C(F)(F)F)cc1	inactive: 1.05
CO[C@H]1CN(C)C(=O)c2cc(NC(=O)Nc3ccc(Cl)cc3)ccc2OC[C@H](C)N(C(=O)Nc2c(C)noc2C)C[C@@H]1C	inactive: 0.996
COC(=O)c1cnn2c(=O)c3c([nH]c12)CCC3	inactive: 0.951
CCN(CC)C(=O)N1CCN(C)CC1	inactive: 1.01
C[C@H](CO)N1C[C@H](C)[C@H](CN(C)Cc2ccc(C(=O)O)cc2)OCCCC[C@H](C)Oc2ccc(NC(=O)c3ccccc3)cc2C1=O	inactive: 1.01
CC(C)CC(=O)N1CCN(S(C)(=O)=O)CC1	inactive: 1
O=C(O)c1cc(O)c(O)c(O)c1	inactive: 1.12
COc1ccc(CN(C)C[C@@H]2OCCCC[C@H](C)Oc3ccc(NC(=O)NC(C)C)cc3C(=O)N([C@@H](C)CO)C[C@H]2C)cc1	inactive: 0.988
COc1cccc(CNC(=O)c2cc3c(c(-c4cccc(-c5ccncc5)c4)n2)[C@H](CCO)N([S@@](=O)C(C)(C)C)C3)c1	inactive: 0.956
Cc1noc(C)c1NC(=O)N[C@H]1CC[C@H](CC(=O)N2CCN(C)CC2)O[C@H]1CO	inactive: 1
NS(=O)(=O)OCCCCCCCOS(N)(=O)=O	inactive: 1.01
C[C@@H]1CN([C@H](C)CO)C(=O)c2cc(NC(=O)Nc3ccc4c(c3)OCO4)ccc2O[C@@H](C)CCCCO[C@@H]1CN(C)Cc1ccc2c(c1)OCO2	inactive: 1.02
